Experimental data published in the supplement of paper PMC7826260.
Some of the results follow. One pool of 16,384 single-stranded DNAs met each Rep nickase domain in vitro for 1 h at 37 °C with 3 µM enzyme; only the middle of the 90-letter strands is printed. A value is the log2 ratio of uncut reads to the pool without enzyme; more negative means more cut, near 0 not cut, and no call is made. Shares of all reads are compared; values above 0 arise when much of the pool is cut.

Tested on: T1, Rep nickase domain of porcine circovirus 2
T1 sequence (residues 2-116, tag not shown): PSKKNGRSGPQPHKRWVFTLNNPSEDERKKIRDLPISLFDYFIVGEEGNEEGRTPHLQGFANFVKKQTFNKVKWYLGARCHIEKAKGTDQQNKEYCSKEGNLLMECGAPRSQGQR
Test: uncleaved DNA left, log2 of reads against the no-enzyme library (log2 ratio); higher = less cleavage (more negative = more Rep cleavage of the k-mer); sequences stand for … in CTCGTCCG…ACCGGAGA
Protocol: (§1)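 A pool of 90-nt single-stranded DNAs with seven random bases just before the constant AC of the nick site (name = the seven bases) was cut by 3 µM recombinant His6-SUMO-tagged Rep nickase domain (300 nM DNA, 50 mM HEPES pH 8.0, 50 mM NaCl, 1 mM MnCl2, 1 h, 37 °C, three replicates). Uncut DNA was amplified and sequenced.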

| Sequence | uncleaved DNA left (log2) |
| --- | --- |
| CCGGATA | 0.053 |
| TCCACCT | -0.595 |
| TCAACCC | -1.16 |
| CAGAGAC | 0.0438 |
| TTATTAG | 0.276 |
| TTCCACG | 0.0779 |
| TGACCAG | -0.0503 |
| AGAAATG | 0.18 |
| GTTTGAA | 0.105 |
| CTACTAC | -2.7 |
| ACATCAG | 0.184 |
| GAAATCG | 0.0796 |
| TACCCTG | -0.639 |
| CTAAGGT | 0.0404 |
| CGCCCGA | 0.0215 |
| TCTGGAT | 0.249 |
| TATTGAG | 0.11 |
| TCCCCGT | -0.121 |
| TGTGGGT | 0.0318 |
| ATACCCT | -0.256 |

| Sequence | uncleaved DNA left (log2) |
| --- | --- |
| TTTTGTA | -0.392 |
| TGTTGTA | -0.224 |
| TTTGTCA | -0.0382 |
| CGGGAGT | 0.112 |
| CGCGTGG | 0.112 |
| CCCCGCG | 0.097 |
| CCATCCG | 0.0441 |
| AGGCTGA | 0.0568 |
| CGTCCAG | 0.0627 |
| CGTTTAG | 0.348 |
| CCTATCC | -0.0309 |
| CCGAGCT | -0.0221 |
| TGGAGGC | 0.197 |
| ACAGTGG | 0.182 |
| AGAACTA | -0.0272 |
| TGTCTCG | 0.0152 |
| CCAGATT | -0.624 |
| CAGCACT | -2.93 |
| AGGTGAC | 0.154 |
| AGGGTTA | -0.00832 |

Tested on: T2, Rep nickase domain of tomato yellow leaf curl virus
T2 sequence (residues 1-136, tag not shown): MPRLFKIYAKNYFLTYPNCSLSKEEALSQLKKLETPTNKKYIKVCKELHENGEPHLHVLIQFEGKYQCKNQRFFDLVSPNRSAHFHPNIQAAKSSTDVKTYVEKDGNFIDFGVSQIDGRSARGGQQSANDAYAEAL
Test: as above
Protocol: as §1

| Sequence | uncleaved DNA left (log2) |
| --- | --- |
| CCGGATA | -0.134 |
| TCCACCT | -0.0305 |
| TCAACCC | -0.075 |
| CAGAGAC | -0.0472 |
| TTATTAG | 0.0837 |
| TTCCACG | -0.0623 |
| TGACCAG | 0.135 |
| AGAAATG | -0.051 |
| GTTTGAA | 0.0768 |
| CTACTAC | -0.149 |
| ACATCAG | 0.11 |
| GAAATCG | -0.0652 |
| TACCCTG | -0.134 |
| CTAAGGT | -0.172 |
| CGCCCGA | -0.143 |
| TCTGGAT | -0.144 |
| TATTGAG | 0.133 |
| TCCCCGT | -0.113 |
| TGTGGGT | -0.116 |
| ATACCCT | 0.0146 |

| Sequence | uncleaved DNA left (log2) |
| --- | --- |
| TTTTGTA | 0.0933 |
| TGTTGTA | -0.00112 |
| TTTGTCA | 0.195 |
| CGGGAGT | -0.201 |
| CGCGTGG | 0.0481 |
| CCCCGCG | -0.0275 |
| CCATCCG | -0.0519 |
| AGGCTGA | -0.168 |
| CGTCCAG | 0.0535 |
| CGTTTAG | 0.197 |
| CCTATCC | 0.0349 |
| CCGAGCT | 0.015 |
| TGGAGGC | 0.0341 |
| ACAGTGG | 0.0403 |
| AGAACTA | 0.0196 |
| TGTCTCG | -0.138 |
| CCAGATT | -0.0191 |
| CAGCACT | -0.0782 |
| AGGTGAC | 0.0346 |
| AGGGTTA | -0.127 |

Tested on: T3, Rep nickase domain of wheat dwarf virus
T3 sequence (residues 1-137, tag not shown): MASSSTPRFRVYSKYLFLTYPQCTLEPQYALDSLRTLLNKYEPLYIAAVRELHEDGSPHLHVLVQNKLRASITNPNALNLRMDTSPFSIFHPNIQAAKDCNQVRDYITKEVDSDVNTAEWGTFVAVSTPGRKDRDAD
Test: as above
Protocol: as §1

| Sequence | uncleaved DNA left (log2) |
| --- | --- |
| CCGGATA | -0.108 |
| TCCACCT | -0.162 |
| TCAACCC | 0.0623 |
| CAGAGAC | 0.0365 |
| TTATTAG | 0.0248 |
| TTCCACG | -0.0388 |
| TGACCAG | 0.074 |
| AGAAATG | 0.108 |
| GTTTGAA | 0.0914 |
| CTACTAC | -0.137 |
| ACATCAG | -0.0155 |
| GAAATCG | -0.136 |
| TACCCTG | -0.047 |
| CTAAGGT | -0.169 |
| CGCCCGA | -0.146 |
| TCTGGAT | 0.171 |
| TATTGAG | 0.00717 |
| TCCCCGT | -0.0507 |
| TGTGGGT | 0.0433 |
| ATACCCT | 0.0437 |

| Sequence | uncleaved DNA left (log2) |
| --- | --- |
| TTTTGTA | -0.105 |
| TGTTGTA | -0.12 |
| TTTGTCA | 0.1 |
| CGGGAGT | 0.0124 |
| CGCGTGG | 0.0452 |
| CCCCGCG | -0.163 |
| CCATCCG | -0.102 |
| AGGCTGA | -0.0167 |
| CGTCCAG | -0.0566 |
| CGTTTAG | 0.132 |
| CCTATCC | 0.0276 |
| CCGAGCT | -0.124 |
| TGGAGGC | 0.0552 |
| ACAGTGG | -0.111 |
| AGAACTA | 0.116 |
| TGTCTCG | -0.227 |
| CCAGATT | -0.235 |
| CAGCACT | -0.16 |
| AGGTGAC | 0.0513 |
| AGGGTTA | 0.0733 |
